# Test results published in article PMC2110886 (PLoS ONE, 2007).
# Assay: Steady-state plasma pharmacokinetics, open-label randomized three-way crossover study, drugs alone or in combination
# Conditions: Amantadine + Oseltamivir/Oseltamivir alone
# [1] = oseltamivir carboxylate in plasma
compound,measurement,setting,value
"CCC(CC)O[C@@H]1C=C(C(=O)O)C[C@H](N)[C@H]1NC(C)=O [Oseltamivir carboxylate, oseltamivir carboxylate]","Clast (Ctrough), ratio of geometric means",[1],1.03
same,"Cmax, ratio of geometric means",[1],0.95
"CCOC(=O)C1=C[C@@H](OC(CC)CC)[C@H](NC(C)=O)[C@@H](N)C1 [Oseltamivir, oseltamivir, reference compound]","Clast (Ctrough), ratio of geometric means",oseltamivir in plasma,0.95
same,"Cmax, ratio of geometric means",oseltamivir in plasma,0.85
